# This is one part of the list.
# Legend:
# Experiment in all cases: glycan array binding signal (z-score within array); higher = stronger binding
# Details in all cases: glycan notation: IUPAC condensed, linker removed
# Gal(b1-4)Glc = target: Gal(b1-4)Glc
# Summary of the method: (§1)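 Glycan array data were curated from 3228 arrays in the Consortium for Functional Glycomics database and kept only where the protein sequence was available. Glycan names were converted to IUPAC-condensed notation, and columns mapping to the same glycan were averaged. The binding signal is a within-array Z-score, averaged across arrays of the same protein sequence at different concentrations or buffers and across linkers. Negative Z-scores can be read as non-binding.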
# Gal(b1-4)Glc6S = target: Gal(b1-4)Glc6S
# Summary of the method: as §1
# Gal(b1-4)GlcNAc = target: Gal(b1-4)GlcNAc
# Summary of the method: as §1
# [1] = target: Gal(b1-4)GlcNAc(a1-6)Gal(b1-4)GlcNAc
# Summary of the method: as §1
# Gal(b1-4)GlcNAc(b1-2)Man = target: Gal(b1-4)GlcNAc(b1-2)Man
# Summary of the method: as §1
# [2] = target: Gal(b1-4)GlcNAc(b1-2)Man(a1-3)Man(b1-4)GlcNAc(b1-4)GlcNAc
# Summary of the method: as §1
# [3] = target: Gal(b1-4)GlcNAc(b1-2)Man(a1-3)[Gal(b1-4)GlcNAc(b1-2)Man(a1-6)]Man(b1-4)GlcNAc(b1-4)GlcNAc
# Summary of the method: as §1
# [4] = target: Gal(b1-4)GlcNAc(b1-2)Man(a1-3)[Gal(b1-4)GlcNAc(b1-2)Man(a1-6)]Man(b1-4)GlcNAc(b1-4)[Fuc(a1-6)]GlcNAc
# Summary of the method: as §1
# [5] = target: Gal(b1-4)GlcNAc(b1-2)Man(a1-3)[Gal(b1-4)GlcNAc(b1-2)Man(a1-6)][Gal(b1-4)GlcNAc(b1-4)]Man(b1-4)GlcNAc(b1-4)[Fuc(a1-6)]GlcNAc
# Summary of the method: as §1
# [6] = target: Gal(b1-4)GlcNAc(b1-2)Man(a1-3)[Gal(b1-4)GlcNAc(b1-2)Man(a1-6)][GlcNAc(b1-4)]Man(b1-4)GlcNAc(b1-4)[Fuc(a1-6)]GlcNAc
# Summary of the method: as §1
# [7] = target: Gal(b1-4)GlcNAc(b1-2)Man(a1-3)[GlcNAc(b1-2)Man(a1-6)]Man(b1-4)GlcNAc(b1-4)GlcNAc
# Summary of the method: as §1
# [8] = target: Gal(b1-4)GlcNAc(b1-2)Man(a1-3)[GlcNAc(b1-4)][Gal(b1-4)GlcNAc(b1-2)Man(a1-6)]Man(b1-4)GlcNAc(b1-4)GlcNAc
# Summary of the method: as §1
# [9] = target: Gal(b1-4)GlcNAc(b1-2)Man(a1-3)[Man(a1-6)]Man(b1-4)GlcNAc(b1-4)GlcNAc
# Summary of the method: as §1
# [10] = target: Gal(b1-4)GlcNAc(b1-2)Man(a1-6)Man(b1-4)GlcNAc(b1-4)GlcNAc
# Summary of the method: as §1
# [11] = target: Gal(b1-4)GlcNAc(b1-2)Man(a1-6)[GlcNAc(b1-2)Man(a1-3)]Man(b1-4)GlcNAc(b1-4)GlcNAc
# Summary of the method: as §1
# [12] = target: Gal(b1-4)GlcNAc(b1-2)Man(a1-6)[Man(a1-3)]Man(b1-4)GlcNAc(b1-4)GlcNAc
# Summary of the method: as §1
# [13] = target: Gal(b1-4)GlcNAc(b1-2)[Gal(b1-4)GlcNAc(b1-4)]Man(a1-3)[Gal(b1-4)GlcNAc(b1-2)Man(a1-6)]Man(b1-4)GlcNAc(b1-4)GlcNAc
# Summary of the method: as §1
# [14] = target: Gal(b1-4)GlcNAc(b1-2)[Gal(b1-4)GlcNAc(b1-4)]Man(a1-3)[Gal(b1-4)GlcNAc(b1-2)[Gal(b1-4)GlcNAc(b1-6)]Man(a1-6)]Man(b1-4)GlcNAc(b1-4)GlcNAc
# Summary of the method: as §1
# [15] = target: Gal(b1-4)GlcNAc(b1-2)[Gal(b1-4)GlcNAc(b1-4)]Man(a1-3)[GlcNAc(b1-4)][Gal(b1-4)GlcNAc(b1-2)Man(a1-6)]Man(b1-4)GlcNAc(b1-4)GlcNAc
# Summary of the method: as §1
# [16] = target: Gal(b1-4)GlcNAc(b1-2)[Gal(b1-4)GlcNAc(b1-4)]Man(a1-3)[GlcNAc(b1-4)][Gal(b1-4)GlcNAc(b1-2)[Gal(b1-4)GlcNAc(b1-6)]Man(a1-6)]Man(b1-4)GlcNAc(b1-4)GlcNAc
# Summary of the method: as §1
# [17] = target: Gal(b1-4)GlcNAc(b1-2)[Gal(b1-4)GlcNAc(b1-6)]Man(a1-6)[Gal(b1-4)GlcNAc(b1-2)Man(a1-3)]Man(b1-4)GlcNAc(b1-4)GlcNAc
# Summary of the method: as §1
# [18] = target: Gal(b1-4)GlcNAc(b1-2)[Gal(b1-4)GlcNAc(b1-6)]Man(a1-6)[Gal(b1-4)GlcNAc(b1-2)Man(a1-3)]Man(b1-4)GlcNAc(b1-4)[Fuc(a1-6)]GlcNAc
# Summary of the method: as §1
binder,measurement,setting,value
"MPA (Maclura pomifera), P18674 (protein) GVTFDDGAYTGIREINFEYNSETAIGGLRVTYDLNGMPFVAEDHKSFITGFKPVKISLEFPSEYIVEVSGYVGKVEGYTVIRSLTFKTNKQTYGPYGVTNGTPFSLPIENGLIVGFKGSIGYWLDYFSIYLSL",glycan array binding signal (z-score),Gal(b1-4)Glc,-0.197
same,glycan array binding signal (z-score),Gal(b1-4)Glc6S,-0.154
same,glycan array binding signal (z-score),Gal(b1-4)GlcNAc,-0.18
same,glycan array binding signal (z-score),[1],-0.207
same,glycan array binding signal (z-score),Gal(b1-4)GlcNAc(b1-2)Man,-0.162
same,glycan array binding signal (z-score),[2],-0.232
same,glycan array binding signal (z-score),[3],-0.124
same,glycan array binding signal (z-score),[4],-0.185
same,glycan array binding signal (z-score),[5],-0.166
same,glycan array binding signal (z-score),[6],-0.26
same,glycan array binding signal (z-score),[7],-0.111
same,glycan array binding signal (z-score),[8],-0.297
same,glycan array binding signal (z-score),[9],-0.21
same,glycan array binding signal (z-score),[10],-0.224
same,glycan array binding signal (z-score),[11],-0.153
same,glycan array binding signal (z-score),[12],-0.302
same,glycan array binding signal (z-score),[13],-0.046
same,glycan array binding signal (z-score),[14],-0.263
same,glycan array binding signal (z-score),[15],-0.306
same,glycan array binding signal (z-score),[16],-0.214
same,glycan array binding signal (z-score),[17],-0.276
same,glycan array binding signal (z-score),[18],-0.279
